Among the data in article PMC10668032 are binding signal values, retold here.

The other results are listed elsewhere or left out. At the low end of the ranking the order means little.

This assay deals with SIX1-Q177R homeodomain (UniProt Q15475). Briefly: universal protein binding microarray. As to conditions: Universal all-10-mer PBM (8x60K, AMADID 030236), 300 nM GST-tagged protein, Alexa Fluor 488 anti-GST; buffer, salt, pH and temperature not stated; high values mean tight binding; most listed sequences are background and not binding sites; double strand, one strand shown.
As to AGGTACAG, the binding signal was -0.114 E-score.
Consider CCTAGAGA, for which the binding signal is -0.171 E-score.
For the sequence ATGCCCCG, the binding signal stood at 0.015 E-score.
In the case of GGTATTCA, the binding signal amounted to 0.058 E-score.
As to GAAACGAC, the binding signal is -0.0623 E-score.
ACCACTGA: the binding signal came to 0.0218 E-score.
The same measure for CAACGAAG: -0.0375 E-score; for CGGCCTAA: 0.00626 E-score.
For the sequence CATGTCCC, the binding signal is -0.246 E-score.
As to GACATTAC, the binding signal was -0.0797 E-score.
As to CCGCACGG, the binding signal came to 0.0336 E-score.
The value for CTAGACGA was -0.0204 E-score; that for CTGAGACC was -0.131 E-score.
As for AATGGGTG, the binding signal worked out at 0.281 E-score.
For the sequence ACTCCAGT, the binding signal came to 0.139 E-score.
On to GCCATGCA, for which the binding signal was -0.149 E-score.
In the case of AATTTTTG, the binding signal is -0.0721 E-score.
With AAGATGCG, the binding signal was -0.0129 E-score.
For the sequence CACTTACA, the binding signal is 0.352 E-score.
Regarding ACTAGATC, the binding signal is 0.06 E-score.
The value for AAGGAAAC was -0.0558 E-score; that for GCGAGCTA was -0.162 E-score.
For the sequence CATGATGA, the binding signal amounted to 0.0428 E-score.
As for ACAAGCAA, the binding signal was -0.108 E-score.
Take ACTGAATA: the binding signal is -0.132 E-score.
The value for ATAGTTAA was -0.058 E-score.
ACATCGAG: the binding signal was -0.0722 E-score.
Turning to TCTGGCAA, the binding signal was -0.193 E-score.
GAGTGGAA: the binding signal is -0.0479 E-score.
Regarding GACCGATA, the binding signal is -0.0217 E-score.
The same measure for AGTATCGG: 0.208 E-score; for ACCTGCGG: 0.0488 E-score.
Take CAGCCCTC: the binding signal was -0.0853 E-score.
With CTAGGAAA, the binding signal is -0.208 E-score.
The value for CACGGAGC was 0.163 E-score; that for TAGTGCAA was -0.111 E-score.
Take TAGATGGA: the binding signal stood at 0.146 E-score.
AAGTTAGG: the binding signal was -0.0455 E-score.
With GTGGACAC, the binding signal was 0.419 E-score.
Take GAGGCTAC: the binding signal came out at 0.0789 E-score.
In the case of CCCATTTC, the binding signal was -0.0802 E-score.
The same measure for TATATTGA: 0.0504 E-score; for GAAACCGA: -0.0924 E-score; for AGCCATGA: -0.0361 E-score.
With ACTCTAAC, the binding signal is -0.0554 E-score.
Turning to TACTTATA, the binding signal is -0.0918 E-score.
For the sequence ACTGCACG, the binding signal came to 0.0778 E-score.
As to AGGCCCAC, the binding signal was -0.161 E-score.
The value for CGGGGAGC was -0.146 E-score.
As for CAAGAGGG, the binding signal is -0.0151 E-score.
As for TAACATTA, the binding signal is -0.0975 E-score.
CGGCCTGA: the binding signal is -0.0871 E-score.
Regarding AGTAACAA, the binding signal is -0.189 E-score.
AGCCGTTA: the binding signal is -0.246 E-score.
In the case of GACAGTAA, the binding signal was -0.0716 E-score.
As for AGTCTGAG, the binding signal is -0.0672 E-score.
With CTGCCCCA, the binding signal is -0.075 E-score.
The value for CGTGCTTA was 0.0941 E-score.
As for CTCTAGCC, the binding signal is -0.0924 E-score.
As to GCTTGGAC, the binding signal was -0.0822 E-score.
In the case of CATAACCG, the binding signal is -0.0406 E-score.
For ATCTCAGC, the binding signal is -0.103 E-score.
Turning to ATTACTAC, the binding signal was 0.0498 E-score.
In the case of AACTTCGA, the binding signal was -0.337 E-score.
With AAGGACAA, the binding signal was -0.091 E-score.
On to ATCCCTGC, for which the binding signal is 0.16 E-score.
For ACGATGTC, the binding signal was -0.13 E-score.
As for AGTGTAAG, the binding signal stood at 0.415 E-score.
As for TGGCAACA, the binding signal was found to be 0.0701 E-score.
The value for ACATCCGA was -0.0659 E-score.
For AGGATGAC, the binding signal is -0.106 E-score.
Regarding ACACGGGT, the binding signal turned out to be 0.453 E-score.
Turning to ATCCAGCG, the binding signal is -0.0748 E-score.
The same measure for CCGCTACC: -0.0464 E-score.
In the case of ATGTGCAA, the binding signal is -0.175 E-score.
For CGATCTGC, the binding signal is -0.0353 E-score.
Take CTTTGGCC: the binding signal was -0.193 E-score.
The same measure for CTTTCATA: -0.12 E-score.
With ACAAATCA, the binding signal was -0.11 E-score.
As for CGGGAAAC, the binding signal is -0.0566 E-score.
Turning to CAGAGATC, the binding signal was -0.206 E-score.
Turning to GGTTCATA, the binding signal came out at 0.103 E-score.
The value for GCAAAAGC was -0.211 E-score.
The value for CTATGCTA was -0.0988 E-score; that for CGACGCTA was 0.0107 E-score; that for CAGTTACG was -0.033 E-score.
As for AGGAGAAG, the binding signal is -0.14 E-score.
In the case of TGCGCGAA, the binding signal is 0.0437 E-score.
Regarding GAAAATCC, the binding signal was -0.129 E-score.
The value for ACACCGCG was 0.481 E-score; that for ATGCATGA was -0.0633 E-score; that for CATATTGA was -0.127 E-score.
AGCCCGTC: the binding signal was -0.0863 E-score.
The value for AGATACGA was -0.114 E-score; that for ACGTTGCC was -0.276 E-score.
Consider CGGAGTCC, for which the binding signal is 0.132 E-score.
The same measure for CCGGAAAC: 0.0123 E-score.
Turning to CTCCACGC, the binding signal is -0.00874 E-score.
On to ATTGTGTC, for which the binding signal was 0.219 E-score.
For the sequence CCTGCCGA, the binding signal is -0.125 E-score.
On to ACTATGCT, for which the binding signal is -0.0562 E-score.
In the case of ACTATTTA, the binding signal is 0.0639 E-score.
Regarding CAGACCGC, the binding signal is -0.0989 E-score.
Take CGAGAAGC: the binding signal is -0.0205 E-score.
Consider TACAGATA, for which the binding signal was -0.0687 E-score.
The value for CATGACGC was 0.0528 E-score.
With CAGCTGCA, the binding signal was -0.133 E-score.
Regarding AGTCGCTG, the binding signal was -0.122 E-score.
The same measure for TATCTTGA: -0.104 E-score.
In the case of CCCCAGTC, the binding signal was -0.0542 E-score.
For CCCGTGTC, the binding signal came to 0.458 E-score.
For the sequence ACCACACC, the binding signal was 0.407 E-score.
AAGGCGAA: the binding signal is -0.0583 E-score.
Regarding ACATCAAC, the binding signal was -0.0413 E-score.
The same measure for AGGCAGAG: -0.294 E-score.
For GCCGGACC, the binding signal is -0.207 E-score.
Regarding GCCATGCC, the binding signal is -0.181 E-score.
With ATCAAATC, the binding signal was -0.0527 E-score.
Take GAACGTGA: the binding signal was -0.144 E-score.
Regarding ACCGCCCC, the binding signal was 0.157 E-score.
With AGACAGTG, the binding signal stood at 0.072 E-score.
Take GTCTTTTA: the binding signal was found to be 0.00775 E-score.
As to AATGAACC, the binding signal was determined as 0.019 E-score.
With CAAAGTCA, the binding signal is -0.348 E-score.
Turning to ACTGTGGG, the binding signal turned out to be 0.103 E-score.
For the sequence TATCACCA, the binding signal amounted to 0.0633 E-score.
For CGGCCTTC, the binding signal is -0.0834 E-score.
Take ATACAGGA: the binding signal is -0.298 E-score.
As to AACAGGAT, the binding signal was -0.0143 E-score.
The same measure for AATCGGGC: 0.0203 E-score.
With GTTTTTGA, the binding signal was 0.0762 E-score.
The same measure for CCGTGACC: 0.0574 E-score.
On to ACAAGGCT, for which the binding signal was -0.115 E-score.
Regarding GATCTGCC, the binding signal was 0.0106 E-score.
With ATTATGAG, the binding signal is -0.162 E-score.
For the sequence AGGAAACG, the binding signal was -0.227 E-score.
For TCTAAAAA, the binding signal is -0.141 E-score.
For the sequence CACCCGCG, the binding signal was determined as 0.301 E-score.
On to AAACGTGG, for which the binding signal is -0.251 E-score.
Take ACTTCGAT: the binding signal was -0.169 E-score.
As to ATCCCATG, the binding signal stood at 0.0869 E-score.
On to AAATCTAG, for which the binding signal was -0.103 E-score.
The value for TGCAAACA was 0.0129 E-score.
In the case of CGGAGGCA, the binding signal came to 0.0252 E-score.
TTGTGAAA: the binding signal stood at 0.106 E-score.
As to AGTGGGTG, the binding signal was 0.277 E-score.
AAGTCCGA: the binding signal was -0.0441 E-score.
As for ACATGCCT, the binding signal was -0.199 E-score.
Turning to CCCATCGC, the binding signal was -0.0856 E-score.
Turning to AGGAAGGC, the binding signal is -0.22 E-score.
As to TTCGACAA, the binding signal is -0.00543 E-score.
In the case of ACTCCATA, the binding signal turned out to be 0.201 E-score.
On to CCGATCTC, for which the binding signal worked out at 0.0539 E-score.
TACAAAAA: the binding signal was 0.102 E-score.
For the sequence TAGGCAGA, the binding signal was -0.0977 E-score.
Take AATAAGCG: the binding signal was -0.257 E-score.
Turning to ACCCCACC, the binding signal was determined as 0.327 E-score.
On to ATTACTTC, for which the binding signal was -0.156 E-score.
Take AATCCCGC: the binding signal is -0.102 E-score.
With CCTCGGCG, the binding signal came out at 0.0113 E-score.
In the case of ACACGACC, the binding signal is 0.417 E-score.
The value for ATGACGCC was 0.172 E-score.
As for AGGATACT, the binding signal was found to be 0.167 E-score.
In the case of GCAGAACA, the binding signal amounted to 0.146 E-score.
As for CCTCTTGC, the binding signal is -0.147 E-score.
With CACTAAAC, the binding signal stood at 0.195 E-score.
As to ACCACTTC, the binding signal turned out to be 0.0817 E-score.
Take AGCTGGAA: the binding signal is -0.175 E-score.
For the sequence TTCTCAAA, the binding signal was -0.251 E-score.
The same measure for AGGCCAAA: -0.196 E-score; for ATATTCTC: -0.0362 E-score; for CAGGCTTC: -0.271 E-score.
